Common to all, as to assay: co-IP; immunoprecipitation of transiently expressed Myc-SPATA2 variants from SPATA2 KO U2OS/NOD2 cells, western blot
Background: In western blotting, separated proteins are transferred to a membrane and probed.

Amino acid sequences for entries named in this document (tags omitted).
UniProt Q96EP0: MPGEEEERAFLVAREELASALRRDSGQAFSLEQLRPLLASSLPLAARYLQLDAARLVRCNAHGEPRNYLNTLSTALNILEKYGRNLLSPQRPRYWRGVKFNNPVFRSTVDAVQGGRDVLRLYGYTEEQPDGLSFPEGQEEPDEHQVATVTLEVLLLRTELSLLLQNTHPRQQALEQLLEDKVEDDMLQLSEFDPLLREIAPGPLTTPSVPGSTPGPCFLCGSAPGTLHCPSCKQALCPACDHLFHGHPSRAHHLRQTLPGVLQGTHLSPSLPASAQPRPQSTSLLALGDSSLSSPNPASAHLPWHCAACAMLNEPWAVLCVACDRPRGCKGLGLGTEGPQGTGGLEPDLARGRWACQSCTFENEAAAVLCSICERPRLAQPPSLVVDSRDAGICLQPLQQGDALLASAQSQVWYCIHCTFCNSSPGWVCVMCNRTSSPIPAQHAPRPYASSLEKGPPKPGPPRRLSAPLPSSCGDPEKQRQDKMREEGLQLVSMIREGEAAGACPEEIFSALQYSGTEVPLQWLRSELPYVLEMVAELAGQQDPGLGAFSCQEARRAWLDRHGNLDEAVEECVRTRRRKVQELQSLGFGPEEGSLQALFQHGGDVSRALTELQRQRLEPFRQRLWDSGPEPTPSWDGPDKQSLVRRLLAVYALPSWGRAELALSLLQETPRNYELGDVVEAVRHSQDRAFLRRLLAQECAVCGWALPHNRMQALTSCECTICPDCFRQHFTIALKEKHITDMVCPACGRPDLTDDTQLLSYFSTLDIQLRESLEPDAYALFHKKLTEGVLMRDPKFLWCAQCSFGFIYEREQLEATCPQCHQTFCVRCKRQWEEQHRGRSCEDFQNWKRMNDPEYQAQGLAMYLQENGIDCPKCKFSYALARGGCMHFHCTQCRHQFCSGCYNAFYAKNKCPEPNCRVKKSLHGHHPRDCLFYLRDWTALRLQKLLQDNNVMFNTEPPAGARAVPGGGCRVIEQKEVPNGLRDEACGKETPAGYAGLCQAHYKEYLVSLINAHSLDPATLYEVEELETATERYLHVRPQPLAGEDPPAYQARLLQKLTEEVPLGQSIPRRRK
UniProt Q96BN8: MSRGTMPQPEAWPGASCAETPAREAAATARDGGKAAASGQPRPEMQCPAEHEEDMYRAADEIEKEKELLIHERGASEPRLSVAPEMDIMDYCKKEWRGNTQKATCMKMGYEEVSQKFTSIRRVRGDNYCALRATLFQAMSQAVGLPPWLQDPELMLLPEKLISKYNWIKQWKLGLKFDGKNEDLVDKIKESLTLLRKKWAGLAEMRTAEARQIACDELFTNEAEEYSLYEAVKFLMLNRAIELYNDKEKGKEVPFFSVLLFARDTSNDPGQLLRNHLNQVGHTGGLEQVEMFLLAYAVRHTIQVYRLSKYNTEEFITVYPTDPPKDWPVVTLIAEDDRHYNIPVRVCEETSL

Experiment [1] concerns the target T1, Myc-SPATA2 R212X (aa 1–211) (UniProt Q9UM82).
T1 sequence: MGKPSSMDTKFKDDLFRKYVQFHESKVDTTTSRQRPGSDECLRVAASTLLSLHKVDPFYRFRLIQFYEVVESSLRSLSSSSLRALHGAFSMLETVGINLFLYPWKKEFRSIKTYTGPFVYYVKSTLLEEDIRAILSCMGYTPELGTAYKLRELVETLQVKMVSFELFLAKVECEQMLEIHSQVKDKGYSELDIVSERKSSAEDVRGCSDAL

For experiment [2], the target named is T2, Myc-SPATA2 V357X (aa 1–356) (UniProt Q9UM82).
T2 sequence: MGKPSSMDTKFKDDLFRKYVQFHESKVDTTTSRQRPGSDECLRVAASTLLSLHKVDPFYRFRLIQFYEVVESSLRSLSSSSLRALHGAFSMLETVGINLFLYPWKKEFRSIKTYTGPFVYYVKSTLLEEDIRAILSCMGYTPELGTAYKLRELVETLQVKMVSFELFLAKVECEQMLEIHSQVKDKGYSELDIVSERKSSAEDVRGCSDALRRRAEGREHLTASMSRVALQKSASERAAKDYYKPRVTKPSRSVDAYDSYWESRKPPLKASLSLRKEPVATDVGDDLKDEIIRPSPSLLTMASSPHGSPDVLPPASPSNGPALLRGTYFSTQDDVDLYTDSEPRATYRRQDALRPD

The target of experiment [3] is T3, Myc-SPATA2 wild type (UniProt Q9UM82).
T3 sequence: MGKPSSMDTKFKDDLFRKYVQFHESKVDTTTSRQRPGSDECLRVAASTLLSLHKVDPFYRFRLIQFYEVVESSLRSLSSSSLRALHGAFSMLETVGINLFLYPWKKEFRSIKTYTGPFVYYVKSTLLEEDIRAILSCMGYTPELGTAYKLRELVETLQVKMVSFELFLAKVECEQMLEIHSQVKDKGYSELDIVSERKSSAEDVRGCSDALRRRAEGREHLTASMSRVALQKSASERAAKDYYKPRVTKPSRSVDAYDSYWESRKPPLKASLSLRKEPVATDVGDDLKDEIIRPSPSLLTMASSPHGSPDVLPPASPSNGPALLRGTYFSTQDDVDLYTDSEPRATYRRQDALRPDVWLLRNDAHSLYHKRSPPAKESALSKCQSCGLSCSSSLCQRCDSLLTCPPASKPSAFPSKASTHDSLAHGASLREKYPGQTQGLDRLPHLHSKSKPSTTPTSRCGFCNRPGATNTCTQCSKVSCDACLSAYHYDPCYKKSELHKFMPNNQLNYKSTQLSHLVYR

No constants are given. Whether binding was seen depends on the method and setting. Binding seen in cells or lysates may run through a third protein. Some results given as binding are weak or reduced against the parent protein; the word gives no strength. Where a sequence is shown, tags or fusion partners need not be part of it.

Take “HOIP (endogenous) (from UniProt Q96EP0 1-1072)”: the figures for the binding entry in experiment [1], in experiment [2] and in experiment [3] were “no binding”, “binds” and “binds”, respectively.

Consider “OTULIN (endogenous) (from UniProt Q96BN8 1-352)”, for which the binding entry in experiment [3] is recorded as “no binding”.

The values are drawn from paper PMC5031558.
